In one data set the test system is HIV-1 Bal. Briefly: Pseudotyped HIV-1 neutralization (HOS-CD4-CCR5 cells). Format: cell-based. Conditions: Table 2, clade B, R5. As to the method:
To determine the potency and breadth of HIV-1 neutralization by the D1 mutants, viruses pseudotyped with Envs from HIV-1 isolates representing clades A-E and using either CCR5 (R5) or CXCR4 (X4) or both (R5X4) as a coreceptor were included. Pseudoviruses were derived from 293T cells and a neutralization assay was performed in duplicate using HOS-CD4-CCR5 (for all R5 and dual tropic viruses) or HOS-CD4-CXCR4 cell lines as described in Chen et al., Proc. Natl. Acad. Sci. USA, 105: 17121-17126 (2008)). Luminescence was measured 48 hours post-infection and the percentage neutralization was calculated by the following formula: (1—average RLU of inhibitor-containing wells/average RLU or virus-only wells)×100.

For a further data set, the system named is HIV-1 Env Bal. The experiment in a line: HIV-1 Env-mediated cell-cell fusion. Type of data set: cell-based. Conditions: Table 4, clade B, R5.
The next data set has as its system HIV-1 Env JRFL. The experiment in a line: HIV-1 Env-mediated cell-cell fusion. Format: cell-based. Conditions: Table 4, clade B, R5.
In data set [1] the test system is human blood cell lines BJAB (B cell) and SUP-T1 (T cell). The experiment in a line: Binding to MHC-expression cells. Format: cell-based.
In data set [2] the test system is CD4 D1-specific antibody (D9). The experiment in a line: Interaction with CD4 D1-specific antibody D9. Format: binding. The conditions noted are these: FIG. 9. Here is the method: To determine if the A55V mutation results in conformational changes, interaction with a CD4 D1-specific antibody (D9) was assessed.
A short description of data set [3]: Size-exclusion chromatography in PBS at pH 7.4. Type of data set: physicochemical. In general terms: In gel filtration, larger molecules generally elute earlier.

Entries after “also recorded” stand apart in the source; their conditions may differ. Bounds are passed on as bounds.

B1: mD1.22Fc: Fc-fusion protein of mD1.22 (mD1-Fc, SEQ ID NO: 17) (protein)
chain: KKVVYGKKGDTVELTCTASQKKNIQFHWKNSNQIKILGNQGSFLTKGPSKLNDRVDSRRSLWDQGNFPLIIKNLKPEDSDTYICEVEDQKEEVQLVVVGGP[human IgG1 Fc cut from this listing]
Usually IC50 stands for the concentration that inhibits the measured activity by half. A high value points to a need for much substance. One may read the IC90 as the concentration needed for an effect of 90%. A high value points to a need for much substance. For the molecule B1, the concentration for half-maximal inhibition (IC50) in the data set with HIV-1 Bal was 0.4 nM; in the data set on HIV-1 Env JRFL, 66 nM. The IC90 with HIV-1 Bal was 1.9 nM; in the data set with HIV-1 Env Bal, 135 nM; in the data set on HIV-1 Env JRFL, more than 222 nM. Moreover, the “binding with MHC-expression cells” value in data set [1] is listed as “decreased binding; also recorded: does not bind”. Also, the “binding with the D9 antibody” value in data set [2] is given as “largely decreased binding”.

B2: mD1.23: single domain CD4 (D1) mutant, SEQ ID NO: 2 (protein)
chain: KKVVYGKKGDTVELTCTASQKKNIQFHWKDSNQIKILGNQGSFLTKGPSKLNDRADSRRSLWDQGNFPLIIKNLKPEDSDTYICEVEDQKEEVQLVVVG
As to B2, the “oligomeric state by size-exclusion chromatography” value in data set [3] was “uniformly monomeric”.

Values taken from patent publication US20160039904A1, “STABILIZED SINGLE HUMAN CD4 DOMAINS AND FUSION PROTEINS” (priority 2013, published 2016).
